Test results: PubChem BioAssay AID463173 (ICCB-Longwood Screening Facility, Harvard Medical School, 2010)
Hit rate of the full screen: of about 52,000 compounds, about 1,700 (3.3%) were called active. Cut-off read from the data, not from the text of the source: active = survival mostly below about 52% (no sharp cut-off); inactive = mostly above about 56%. The list shows a part of the results.

Each molecule was assayed on Wild type (assay: growth inhibition of S. aureus wild type versus tarO mutant, primary screen, teichoic acid synthesis inhibitors, RN4220, OD600 (AID 463173)). Settings: S. aureus RN4220 wild type/DeltatarO growth, OD600, 18 h, hits give low values, screened at 18.75 µg/mL (by protocol).

SMILES | survival
CCN(CC)c1ccc(C(=O)N2CCc3c([nH]c4ccccc34)C2c2ccc(F)cc2)cc1 (configuration not stated) | inactive: 77%
CCOC(=O)C1=NNC2C(=O)N(c3cc(Cl)ccc3OC)C(=O)C12 (configuration not stated) | inactive: 110%
CCOC(=O)c1sc2ccccc2c1S(=O)(=O)Nc1ccc(OC)c(Cl)c1 | inactive: 72%
CCOc1ccc(NC(=O)Nc2nnc(N3CCCCC3C)s2)cc1 (configuration not stated) | inactive: 73%
Cc1ccc(NC(=O)Nc2nnc(SCC(=O)N(C(C)C)C(C)C)s2)cc1 | inactive: 70%
COc1cccc(CNC(=O)c2c(C)nn(-c3ccc(F)cc3)c2-n2cccc2)c1 | inactive: 75%
Cc1ccccc1Cn1nnc2sc3c(c2c1=O)CCCC3 | active: 0%
CCOC(=O)c1c(NC(=O)Nc2ccc(F)cc2)sc(C(=O)N(C)C)c1C | inactive: 74%
CCOC(=O)c1cc2c(=O)n3ccccc3nc2n(CC2CCCO2)c1=NC(=O)c1cccc(C)c1 (configuration not stated) | inactive: 75%
O=C(COc1ccccc1F)Nc1nnc(SCc2cc(=O)n3ccccc3n2)s1 | inactive: 66%
COc1ccc(CCNC(=O)c2ccc3c(c2)N(Cc2ccccc2Cl)C(=O)c2ccccc2S3)cc1OC | inactive: 83%
COc1ccc(-c2cccc(NS(=O)(=O)c3cc(C(F)(F)F)ccc3Cl)c2)nn1 | inactive: 59%
CCc1nc2ccc(C(=O)NCc3ccccc3C)cc2nc1CC | inactive: 77%
O=c1c(NCc2cccs2)nccn1-c1ccccc1 | inactive: 74%
COc1ccc(-n2cc(-c3ccccc3)c3c(N4CCCC(C)C4)ncnc32)cc1 (configuration not stated) | inactive: 68%
Cn1cc(CCCC(=O)NCc2cccc(Br)c2)c2ccccc21 | inactive: 77%
O=C(CS(=O)(=O)c1cccc2nsnc12)NCc1ccccc1Cl | inactive: 136%
Cc1ccc(CN2c3ccccc3-c3nc(SCC(=O)NCc4ccccc4)ncc3S2(=O)=O)cc1 | active: -1%
Cc1ccc(N(CC(=O)Nc2ccc(F)cc2F)S(=O)(=O)c2cccs2)cc1 | inactive: 82%

SMILES | survival
CN(C)C(=O)CN(C#N)c1nc(Cl)nc(N(C)C)n1 | inactive: 110%
CCC(=O)C1=C(c2ccccc2)N(C(=O)CC)n2c(nnc2-c2ccccc2)S1 | active: -6%
COc1ccc(S(=O)(=O)NNc2ncnc3sc4c(c23)CCCC4)cc1 | inactive: 121%
Cc1c(NC=C(C#N)C#N)c(=O)n(-c2ccccc2)n1C | inactive: 111%
Cc1ccc(S(=O)(=O)NCCc2nnc3ccc(SCc4ccccc4F)nn23)cc1 | inactive: 75%
CCn1c(C)nc2cc(Cl)ccc21 | inactive: 101%
Cc1ccc(NC(=O)c2oc3ccc(S(=O)(=O)N4CCCCC4)cc3c2C)c(C)c1 | inactive: 127%
CCCCCCc1cc2cc(-c3nnc(-c4cccc(Cl)c4)o3)c(=O)oc2cc1O | inactive: 72%
Cc1cccc(N2CCN(C(=O)C(C)n3nc(C)n4c(cc5occc54)c3=O)CC2)c1C (configuration not stated) | inactive: 84%
Cc1cc(C)c(NC(=O)CN2C(=O)C3(SCC(=O)N3c3ccc(F)cc3)c3ccccc32)c(C)c1 (configuration not stated) | inactive: 64%
Cc1cc(C)c(NC(=O)c2c(C)oc3c2C2=NCCN2C=N3)c(C)c1 | inactive: 77%
CCc1ccc(CNC(=O)Cn2nc(-c3ccc(Cl)cc3)ccc2=O)cc1 | inactive: 71%
COc1ccc(C2c3c(n(C)c4ccccc34)C(=O)N2CC(=O)Nc2ccc(C)cc2Cl)cc1 (configuration not stated) | inactive: 55%
CCN(CC)S(=O)(=O)c1ccc(-c2csc(=Nc3cccc(C(F)(F)F)c3)n2Cc2ccc3c(c2)OCO3)cc1 | inactive: 159%
O=C(CC1CCCCC1)N1CCN(c2ccccc2)CC1 | inactive: 102%
Cc1ccc(S(=O)(=O)N2CCCc3cc(NS(=O)(=O)c4ccc(F)cc4)ccc32)cc1 | inactive: 81%
CN(C)c1ccc(CNC(=O)C2CCN(S(=O)(=O)c3ccc4c(c3)oc(=O)n4C)CC2)cc1 | inactive: 87%
COc1cccc(NC(=O)Cn2c(=O)n(Cc3ccc(C(=O)NCc4ccc5c(c4)OCO5)cc3)c(=O)c3ccccc32)c1 | inactive: 103%
CC(=O)Nc1ccc(Oc2ccccc2)cc1 | inactive: 102%

SMILES | survival
CCc1ccc(-c2cc(C)no2)cc1S(=O)(=O)NCc1ccco1 | inactive: 76%
CC1=CC(C)C2(COC(=O)Nc3ccccc3)COC(C)C1C2C (configuration not stated) | inactive: 128%
CCC(Oc1ccc(F)cc1)C(=O)Nc1nc2c(s1)CCCC2 (configuration not stated) | inactive: 76%
COc1ccc(C(=O)N2c3nc(-c4ccco4)nn3C3(CCCCC3)[C@@H]3CCCC[C@@H]32)cc1OC | inactive: 81%
O=C(NC1CCCCC1)c1ccc(Cn2c(SCc3ccccc3)nc3cccnc32)cc1 | inactive: 82%
O=C(Nc1ccc(F)cc1)c1oc2ccccc2c1NC(=O)C1CCCCC1 | inactive: 14%
Cc1cccc(C(=O)N2CCCCC2CCN2CCCCC2)c1 (configuration not stated) | inactive: 86%
CC(=O)N(C(C)=O)c1ccc(C)cc1 | inactive: 104%
COCCCn1c(=O)c2sccc2n2c(CCCC(=O)Nc3ccc(F)c(F)c3)nnc12 | inactive: 81%
Cc1ccc2nc(NC(=O)c3ccc(S(=O)(=O)N4CCCc5ccccc54)cc3)sc2c1 | inactive: 148%
Nc1c(C(=O)Nc2cccc(F)c2)sc2nc(-c3cccs3)ccc12 | inactive: 84%
COc1ccc(CNC(=O)CCC2N=C3c4ccccc4N=C(SCc4ccc(F)cc4)N3C2=O)cc1 (configuration not stated) | inactive: 82%
O=C(C1CCCCC1)N(Cc1cccnc1)c1nc2c(F)cc(F)cc2s1 | inactive: 92%
COc1ccc(OC)c(NC(=O)c2c(NCc3ccc(OC)c(OC)c3)sc3c2CCC(C)C3)c1 (configuration not stated) | inactive: 73%
CCN1CCOC(=O)C1CC(=O)Nc1ccc(C)c(Cl)c1 (configuration not stated) | inactive: 42%
Cn1c(=O)c2c(n(C)c1=O)=NC1(CCCCC1)N=2 | inactive: 101%
Cc1cc(C)nc(NS(=O)(=O)c2ccc(NC(=O)c3cc(=O)c4ccc(C)c(C)c4o3)cc2)n1 | inactive: 91%
CN1CCN(C2(CNC(=O)c3ccc([N+](=O)[O-])cc3)CCCCC2)CC1 | inactive: 108%
CCCc1c(C)nc(N)c(C#N)c1-c1ccc(OC)c(OC)c1 | inactive: 101%
